Laboratory results from article PMC4336329 (PLoS ONE, 2015).
Hit rate of the full screen: of about 310,000 compounds, about 2,200 (0.71%) showed an effect of 50% or more. Effects have a minus sign here. The list shows a part of the results.

Biological target: human ether-à-go-go-related gene (hERG) potassium channel (human, UniProt Q12809)
Test: primary screen, population patch clamp on CHO cells stably expressing hERG

Sequence of human ether-à-go-go-related gene (hERG) potassium channel (Q12809 whole entry, looked up): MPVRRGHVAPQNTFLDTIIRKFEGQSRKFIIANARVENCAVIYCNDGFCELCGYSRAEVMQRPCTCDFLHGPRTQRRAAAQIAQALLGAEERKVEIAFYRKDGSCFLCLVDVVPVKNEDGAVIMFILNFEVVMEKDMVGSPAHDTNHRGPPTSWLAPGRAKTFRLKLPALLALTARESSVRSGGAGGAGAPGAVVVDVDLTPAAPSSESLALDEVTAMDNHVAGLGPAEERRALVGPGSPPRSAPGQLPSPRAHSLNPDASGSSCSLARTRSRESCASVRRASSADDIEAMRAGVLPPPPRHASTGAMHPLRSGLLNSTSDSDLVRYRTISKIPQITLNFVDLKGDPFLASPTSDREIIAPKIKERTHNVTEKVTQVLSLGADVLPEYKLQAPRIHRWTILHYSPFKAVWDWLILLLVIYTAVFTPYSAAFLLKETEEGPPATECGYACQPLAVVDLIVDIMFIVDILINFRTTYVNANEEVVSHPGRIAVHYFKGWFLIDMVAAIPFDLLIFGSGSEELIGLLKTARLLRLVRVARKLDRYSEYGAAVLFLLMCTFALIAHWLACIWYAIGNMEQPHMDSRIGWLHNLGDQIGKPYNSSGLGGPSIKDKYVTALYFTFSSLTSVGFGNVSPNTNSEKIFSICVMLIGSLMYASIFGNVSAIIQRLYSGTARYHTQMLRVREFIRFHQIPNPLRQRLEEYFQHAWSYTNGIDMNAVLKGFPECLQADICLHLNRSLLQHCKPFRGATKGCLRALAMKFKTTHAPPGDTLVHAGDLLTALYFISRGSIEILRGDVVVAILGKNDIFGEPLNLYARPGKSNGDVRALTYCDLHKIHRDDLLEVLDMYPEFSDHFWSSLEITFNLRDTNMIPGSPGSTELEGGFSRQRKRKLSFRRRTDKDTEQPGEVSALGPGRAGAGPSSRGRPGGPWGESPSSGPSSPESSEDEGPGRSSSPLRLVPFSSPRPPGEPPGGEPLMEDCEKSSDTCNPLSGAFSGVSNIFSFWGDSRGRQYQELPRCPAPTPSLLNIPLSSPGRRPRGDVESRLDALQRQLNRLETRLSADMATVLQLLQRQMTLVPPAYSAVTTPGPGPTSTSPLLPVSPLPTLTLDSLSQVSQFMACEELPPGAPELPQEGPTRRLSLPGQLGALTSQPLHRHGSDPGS

Q: With `O=C(NCCCN1CCCC1=O)c1cc(COc2ccc(F)cc2F)on1` as the molecule, how does the “hERG current change (%, negative = inhibition) at 1uM” value read?
A: 4.66%

Q: With `Cc1ccc(CNC(=O)C2CCN(S(=O)(=O)c3c(C)noc3/C=C/c3ccco3)CC2)cc1` as the molecule, how does the “hERG current change (%, negative = inhibition) at 1uM” value read?
A: -2.87%

Q: For `CCOC(=O)N1CCN(Cc2nc(CC3CC3)no2)CC1`, which “hERG current change (%, negative = inhibition) at 1uM” value is on record?
A: 15.4%

Q: With `Cc1ccccc1CNC(=O)C(=O)NCC1OCCCN1S(=O)(=O)c1ccc(F)cc1C` (centres unmarked) as the molecule, how does the “hERG current change (%, negative = inhibition) at 1uM” value read?
A: 15.3%

Q: How did the “hERG current change (%, negative = inhibition) at 1uM” value turn out when `CC(C)n1cc(C(=O)c2ccccc2O)cc(C#N)c1=O` was run?
A: 9.14%

Q: `COc1ccc(-n2c(=S)[nH]c3cc(C(=O)Nc4cc(OC)c(OC)c(OC)c4)ccc3c2=O)c(OC)c1` was tested. Which “hERG current change (%, negative = inhibition) at 1uM” value did it give?
A: 13.2%

Q: Which “hERG current change (%, negative = inhibition) at 1uM” value does the source give for `O=C(NCCc1ccccc1)C1CC1` here?
A: 11.9%

Q: How did the “hERG current change (%, negative = inhibition) at 1uM” value turn out when `O=C(Nc1ccc(O)c2c(=O)cc(-c3ccccc3Cl)oc12)c1ccc(Cl)c(Cl)c1` was run?
A: 10%

Q: Which “hERG current change (%, negative = inhibition) at 1uM” value does the source give for `O=C(NCc1cn2ccsc2n1)c1cccs1` here?
A: 5.44%

Q: `C=CCn1c(SCc2nc3sc(C(=O)O)c(C)c3c(=O)[nH]2)nnc1-c1ccc(F)cc1` was tested. Which “hERG current change (%, negative = inhibition) at 1uM” value did it give?
A: 7.42%

Q: For `CCOc1ccccc1NC(=O)COC(=O)C(CC)c1ccccc1` (centres unmarked), which “hERG current change (%, negative = inhibition) at 1uM” value is on record?
A: 0.794%

Q: `O=C(CC1S/C(=N\S(=O)(=O)c2ccccc2)N(c2ccccc2)C1=O)Nc1ccc(F)cc1` (centres unmarked) was tested. Which “hERG current change (%, negative = inhibition) at 1uM” value did it give?
A: 7.33%

Q: Which “hERG current change (%, negative = inhibition) at 1uM” value does the source give for `CCn1c2ccccc2c2cc(NC(=O)CSc3nnc(-c4cccc(C)c4)o3)ccc21` here?
A: 11.7%

Q: Which “hERG current change (%, negative = inhibition) at 1uM” value does the source give for `O=C(OC(c1ccc(NS(=O)(=O)c2ccccc2)cc1)(C(F)(F)F)C(F)(F)F)c1ccccc1` here?
A: -6.41%

Q: `Cc1ccc(N2CN(S(=O)(=O)c3cccc([N+](=O)[O-])c3)c3nc4ccccc4nc32)cc1` was tested. Which “hERG current change (%, negative = inhibition) at 1uM” value did it give?
A: 0.325%

Q: `CNC(=O)/C(C#N)=C/c1cc(C)n(-c2ccc(N3CCOCC3)cc2)c1C` was tested. Which “hERG current change (%, negative = inhibition) at 1uM” value did it give?
A: 10.9%

Q: `O=C(O)COc1ccc2occ(C(=O)c3ccccc3)c2c1` was tested. Which “hERG current change (%, negative = inhibition) at 1uM” value did it give?
A: -7.22%

Q: How did the “hERG current change (%, negative = inhibition) at 1uM” value turn out when `Cc1ccc(NC(=O)CCCNC(=O)c2ccc(Cl)cc2)c(O)c1` was run?
A: -2.02%

Q: Which “hERG current change (%, negative = inhibition) at 1uM” value does the source give for `O=C(Nc1cccc(Br)c1)c1cccc(OC(=S)N2CCOCC2)c1` here?
A: 10.6%

Q: With `CCCC(=O)C1C(=O)CC(CC(C)SCC)CC1=O` (centres unmarked) as the molecule, how does the “hERG current change (%, negative = inhibition) at 1uM” value read?
A: 9.72%

Q: With `CCCCN(C)CCNC(=O)C(NC(=O)C1CCC(C)CC1)C(C)C` (centres unmarked) as the molecule, how does the “hERG current change (%, negative = inhibition) at 1uM” value read?
A: 3.54%

Q: With `NC(N)=NC(N)=Nc1ccc(O)cc1` as the molecule, how does the “hERG current change (%, negative = inhibition) at 1uM” value read?
A: 7.52%

Q: With `CC(CCc1ccco1)N(C)S(=O)(=O)c1csc(C(N)=O)c1` (centres unmarked) as the molecule, how does the “hERG current change (%, negative = inhibition) at 1uM” value read?
A: 6.68%

Q: How did the “hERG current change (%, negative = inhibition) at 1uM” value turn out when `Cc1n[nH]c(=O)c2c(NC(=O)COC(=O)/C=C/c3cccc(C(F)(F)F)c3)oc(C)c12` was run?
A: 13%

Q: For `O=C(CCOc1ccccc1)N1CCN(S(=O)(=O)c2ccccc2F)CC1`, which “hERG current change (%, negative = inhibition) at 1uM” value is on record?
A: 13.5%

Q: How did the “hERG current change (%, negative = inhibition) at 1uM” value turn out when `Nc1nc(CN2CCN(c3ccccn3)CC2)nc(Nc2ccc(Cl)cc2)n1` was run?
A: -56.2%

Q: Which “hERG current change (%, negative = inhibition) at 1uM” value does the source give for `CCCCCOc1ccccc1C(=O)NCCCCCC(=O)O` here?
A: -14.5%

Q: For `CC(C)(C)c1nc(SCC(=O)N2CC(=O)Nc3ccccc32)c2ccccc2n1`, which “hERG current change (%, negative = inhibition) at 1uM” value is on record?
A: 22.1%

Q: Which “hERG current change (%, negative = inhibition) at 1uM” value does the source give for `CCn1c(CSc2nnc(-c3cccnc3)n2-c2ccccc2C)nc2cc(C(=O)O)ccc21.Cl` here?
A: -7.29%

Q: How did the “hERG current change (%, negative = inhibition) at 1uM” value turn out when `COc1ccccc1CNc1ccc(N2CCOCC2)c(C(=O)O)c1` was run?
A: -0.542%

Q: `COC(=O)Nc1ccc(S(=O)(=O)N2CCCC(C(=O)N3CCC(C)CC3)C2)cc1` (centres unmarked) was tested. Which “hERG current change (%, negative = inhibition) at 1uM” value did it give?
A: -11.6%

Q: Which “hERG current change (%, negative = inhibition) at 1uM” value does the source give for `CCc1ccc(NC(=O)C(C)Sc2nnc(CN3CCCC3)o2)cc1` (centres unmarked) here?
A: 4.55%

Q: `O=C(N/N=C/C=C/c1ccccc1)c1cccc(Br)c1` was tested. Which “hERG current change (%, negative = inhibition) at 1uM” value did it give?
A: 11.5%

Q: How did the “hERG current change (%, negative = inhibition) at 1uM” value turn out when `O=C(CN1CCCCCC1)OCCN=C1NS(=O)(=O)c2ccccc21` was run?
A: -2.6%

Q: For `COC(=O)c1ccccc1OCCOCCOc1cccc2cccnc12`, which “hERG current change (%, negative = inhibition) at 1uM” value is on record?
A: -5.94%

Q: `COc1ccc(-n2c(CN3CCOCC3)nc3ccccc3c2=O)c(OC)c1` was tested. Which “hERG current change (%, negative = inhibition) at 1uM” value did it give?
A: 22.8%

Q: Which “hERG current change (%, negative = inhibition) at 1uM” value does the source give for `COc1ccccc1/C=C/C1=NC(=C\N(C)C)/C(=O)O1` here?
A: 1.12%

Q: For `Cc1ccc(C(=O)NC2(O)C(=O)c3ccccc3C2=O)cc1C`, which “hERG current change (%, negative = inhibition) at 1uM” value is on record?
A: 12.6%

Q: Which “hERG current change (%, negative = inhibition) at 1uM” value does the source give for `CCOCCCNC(=S)N1CCN(Cc2ccco2)CC1.O=C(O)C(=O)O` here?
A: 18%

Q: `CC(C)(C)c1ccc(C(=O)N2CCC(C(=O)NC3CCCCCC3)CC2)cc1` was tested. Which “hERG current change (%, negative = inhibition) at 1uM” value did it give?
A: -6.37%

Q: `CCN(CC)CCN=Cc1c(O)n(Cc2ccccc2)c(=O)[nH]c1=O` [14739636] was tested. Which “hERG current change (%, negative = inhibition) at 1uM” value did it give?
A: -3.04%

Q: `Cc1cnc(NC(=O)c2ccc3c(c2)C(=O)N(Cc2ccco2)C3=O)s1` was tested. Which “hERG current change (%, negative = inhibition) at 1uM” value did it give?
A: -6.71%

Q: For `Cc1ccc(NC(=O)/C(=C\c2ccco2)NC(=O)c2ccco2)cc1`, which “hERG current change (%, negative = inhibition) at 1uM” value is on record?
A: 8.86%

Q: With `COc1ccc(C2Nc3ccccc3C(=O)N2Cc2ccccc2)cc1Cn1nnc2ccccc21` (centres unmarked) as the molecule, how does the “hERG current change (%, negative = inhibition) at 1uM” value read?
A: 2.21%

Q: Which “hERG current change (%, negative = inhibition) at 1uM” value does the source give for `CC(C)c1cc(=O)oc2c3c4c(cc12)CCCN4CCC3` here?
A: 2.01%

Q: For `Cl.OC(COCc1ccccc1)CN1CCCCC1` (centres unmarked), which “hERG current change (%, negative = inhibition) at 1uM” value is on record?
A: 11.8%

Q: `CCn1c(SCC(=O)Nc2cc(C)on2)nnc1-c1ccc(OC)cc1` was tested. Which “hERG current change (%, negative = inhibition) at 1uM” value did it give?
A: 3.87%

Q: `CCOC(=O)CC(NC(=O)c1cc2cccc(OC)c2oc1=O)c1ccc(OC)cc1` (centres unmarked) was tested. Which “hERG current change (%, negative = inhibition) at 1uM” value did it give?
A: 13.4%

Q: For `NS(=O)(=O)c1ccc(CNC(=S)NCc2ccc(F)cc2)cc1`, which “hERG current change (%, negative = inhibition) at 1uM” value is on record?
A: 10.1%

Q: How did the “hERG current change (%, negative = inhibition) at 1uM” value turn out when `CCSc1nc(C)cc(C)c1S(=O)(=O)c1ccccc1C` was run?
A: 6.91%

Q: How did the “hERG current change (%, negative = inhibition) at 1uM” value turn out when `COc1ccccc1CNC(=O)CCCOc1cc(=O)n(C)c2ccccc12` was run?
A: 24.8%

Q: For `CCOC(=O)c1sc(=S)n(CC)c1NC(=O)C1CC1`, which “hERG current change (%, negative = inhibition) at 1uM” value is on record?
A: 9%

Q: How did the “hERG current change (%, negative = inhibition) at 1uM” value turn out when `CN(C)/C=N/c1nc2nccc(-c3ccccn3)n2n1` was run?
A: 10.3%

Q: For `CC(=O)N1CCC(C(=O)OCc2ccc(Cl)cc2)(c2ccccc2)CC1`, which “hERG current change (%, negative = inhibition) at 1uM” value is on record?
A: 19.1%

Q: Which “hERG current change (%, negative = inhibition) at 1uM” value does the source give for `COc1cc(C(=O)NCC(=O)OC(C)C(=O)Nc2ncc(Cl)cc2Cl)cc(OC)c1OC` (centres unmarked) here?
A: 13%

Q: With `C=CCn1c(SCC(=O)c2ccc(OC)cc2)nnc1-c1ccc2c(c1)OCO2` as the molecule, how does the “hERG current change (%, negative = inhibition) at 1uM” value read?
A: 4.12%
